Our source for the IC50 and viability, T/C values is PubChem BioAssay AID2060617 (Molecular Pharmacology Branch, DTP, NCI, 2025).

Not every entry of the source has a single result; some have several. This is not the full list of results. The source may hold further records. The values listed for one entry are repeats in other runs, samples, wells, individuals or studies. Brackets with × count equal records among those shown.

The subject of this assay is 485368-065-R4-J2-PDC spheroids with HUVEC/MSC, viability. Put plainly: Anticancer human tumor 485368-065-R4-J2-PDC patient-derived pancreatic carcinoma cell line growth inhibition [CLK]. The text has this:
A high-throughput screen of multi-cell type tumor spheroids was designed to identify active combinations of […] and targeted small molecules. Complex spheroids include a stromal component modeled by human endothelial cells (HUVEC) and fibroblasts modeled by human mesenchymal stem cells (MSCs). The concentration ranges selected for each drug and investigational agent were based upon clinically achievable concentrations if the clinical Cmax of the agent was known.
Compounds. The drugs and investigational agents: cirtuvivint (SM08502; NSC835563), CC-671 (NSC850746), vemurafenib (NSC761431), tapotoclax (NSC804041), sotorasib (NSC818433), adagrasib (NSC831453), MRTX-1133 (NSC836407), BAY2416964 (NSC825713), copanlisib (NSC816437), inavolisib (NSC800729), abemaciclib (NSC768073), osimertinib (NSC779217), entinostat (NSC756642), eltanexor (KPT-8602, NSC794443), venetoclax (NSC766270), ceralasertib (NSC777638), bortezomib (NSC756655), olaparib (NSC753686), talazoparib (NSC767125), alisertib (NSC759677), peposertib (NSC802822), gemcitabine (NSC613327), 5-fluorouracil (NSC19893), SN-38 (NSC673596), oxaliplatin (NSC266046), paclitaxel (NSC125973), and doxorubicin (NSC123127), were obtained from the National Cancer Institute (NCI) Developmental Therapeutics Program Chemical Repository. […] If the clinical Cmax for an agent had not been determined, the highest concentration tested was 10 microM. […]
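Also: spheroids exposed to compounds for seven days.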
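For viability, T/C in this document: 100% = DMSO vehicle control wells.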

As for `CC(=O)O[C@H]1C(=O)[C@@]2(C)[C@H]([C@H](OC(=O)c3ccccc3)[C@]3(O)C[C@H](OC(=O)[C@H](O)[C@@H](NC(=O)c4ccccc4)c4ccccc4)C(C)=C1C3(C)C)[C@]1(OC(C)=O)CO[C@@H]1C[C@@H]2O`, the concentration for half-maximal inhibition (IC50) (as a rule, the midpoint of a concentration-inhibition curve) (compound alone) is 102 nM and > 10 µM. For the compound `CN1CCN(c2cc(C(=O)Nc3cc4cc(-c5cnn(C)c5)ccc4cn3)ccn2)CC1`, the viability, T/C (in general, the ratio of treated to control) (compound alone 0.1 µM, stronger effect = lower value) was 105, 112, 104, 102 (2×), 99.2, 97.6, 98.7, 96, 85.2, 101, 94.5%.
